# Test results: PMC4336329 (PLoS ONE, 2015)
# In all, about 310,000 compounds went through this assay and about 2,200 (0.71%) showed an effect of 50% or more. The effect is printed as a negative number. The list shows a part of the results.
# Target: human ether-à-go-go-related gene (hERG) potassium channel (human, UniProt Q12809)
# Experiment: primary screen, population patch clamp on CHO cells stably expressing hERG
# Sequence of human ether-à-go-go-related gene (hERG) potassium channel (Q12809 whole entry, looked up): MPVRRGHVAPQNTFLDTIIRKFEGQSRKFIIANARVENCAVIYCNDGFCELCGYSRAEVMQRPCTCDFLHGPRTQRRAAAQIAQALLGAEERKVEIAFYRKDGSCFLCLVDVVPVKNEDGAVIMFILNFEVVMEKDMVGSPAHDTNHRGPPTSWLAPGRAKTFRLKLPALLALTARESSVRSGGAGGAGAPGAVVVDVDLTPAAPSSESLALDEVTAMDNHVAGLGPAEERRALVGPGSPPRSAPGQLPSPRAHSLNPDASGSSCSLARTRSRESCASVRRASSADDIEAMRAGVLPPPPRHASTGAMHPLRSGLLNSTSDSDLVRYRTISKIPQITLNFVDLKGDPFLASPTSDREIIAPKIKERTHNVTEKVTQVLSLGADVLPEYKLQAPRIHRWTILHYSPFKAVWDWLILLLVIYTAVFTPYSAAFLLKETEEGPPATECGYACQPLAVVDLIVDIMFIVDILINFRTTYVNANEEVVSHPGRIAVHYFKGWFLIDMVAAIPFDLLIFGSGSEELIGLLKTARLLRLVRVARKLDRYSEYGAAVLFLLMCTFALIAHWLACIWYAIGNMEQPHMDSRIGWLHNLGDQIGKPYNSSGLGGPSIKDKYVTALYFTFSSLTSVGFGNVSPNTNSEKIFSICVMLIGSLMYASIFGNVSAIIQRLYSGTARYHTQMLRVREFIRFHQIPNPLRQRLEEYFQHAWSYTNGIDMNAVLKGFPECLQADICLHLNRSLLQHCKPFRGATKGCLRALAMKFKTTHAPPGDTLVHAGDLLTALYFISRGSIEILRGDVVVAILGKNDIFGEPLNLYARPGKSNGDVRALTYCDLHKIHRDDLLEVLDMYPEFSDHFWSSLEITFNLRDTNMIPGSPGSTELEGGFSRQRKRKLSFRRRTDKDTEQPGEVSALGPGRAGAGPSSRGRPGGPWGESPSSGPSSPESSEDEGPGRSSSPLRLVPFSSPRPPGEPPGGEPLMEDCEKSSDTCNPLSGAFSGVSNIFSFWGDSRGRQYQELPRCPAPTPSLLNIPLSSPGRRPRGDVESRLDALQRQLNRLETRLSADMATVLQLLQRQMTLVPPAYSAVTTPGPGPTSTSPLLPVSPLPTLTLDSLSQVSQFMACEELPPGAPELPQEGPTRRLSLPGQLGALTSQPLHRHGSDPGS
row,SMILES,"hERG current change (%, negative = inhibition) at 1uM [%]"
1,Cc1nnc(SCC(=O)NC2CCCCC2)n1C1CCCCC1,10.8
2,Cc1[nH]c2ccc(C(=O)NC3CCC(C)CC3)cc2c1C (stereo not drawn),3.54
3,Cn1ccc(C(=O)NC(=S)Nc2ccc([N+](=O)[O-])cc2O)n1,5.28
4,Cc1ccc(S(=O)(=O)NC2=NCN(Cc3cccnc3)CN2)cc1,19.2
5,Cc1ccc[n+](-c2[nH]c(=O)sc2/C=N/N=C(\[O-])c2cccnc2)c1,9.13
6,CCOc1ccccc1-n1c(SCC(=O)Nc2ccccc2C(=O)O)nc2ccccc2c1=O,11.8
7,COC(=O)c1ccc(NC(=O)CCS(=O)(=O)c2ccc(C)cc2)cc1,13.7
8,CC(C)Sc1nc2c(c(=O)n(C)c(=O)n2C)n1C,15.2
9,CCNc1nc(NCC)n2c(SCC(=O)Nc3ccccc3Cl)nnc2n1,12
10,O=C(CN1C(=O)c2ccccc2S1(=O)=O)NCCSCc1c(F)cccc1Cl,7.61
11,CCOc1ncccc1C(=O)OCc1nnc(-c2ccccc2)o1,6.84
12,CCOC(=O)c1cc(C#N)c(N2CCOCC2)nc1-c1ccccc1,-4.3
13,Cc1cccc(C)c1OCC(=O)N=Nc1c(O)[nH]c2ccc(Br)cc12,3.68
14,Cc1[nH]n(-c2ccc([N+](=O)[O-])cc2)c(=O)c1C=NCCN1CCN(C(=O)c2ccccc2F)CC1,-34.2
15,Cc1ccc(NS(=O)(=O)c2cccc(C(=O)O)c2)cc1S(=O)(=O)N1CCOCC1,8.27
16,CC1CCCN(S(=O)(=O)c2ccc(NC(=O)c3cccc(-n4cnnn4)c3)cc2)C1 (stereo not drawn),-0.63
17,CCc1ccc2oc(C(=O)NCc3ccncc3)c(C)c2c1,-1.42
18,CC(C)(C)c1ccc(C(=O)Nc2ccccc2Cl)cc1,17.7
19,COc1ccc(-c2c(C(C)=O)c(C)nc3sc4c(=O)n(-c5ccc(C)cc5)nnc4c23)cc1,10.6
20,Cc1ccc2c(c1)N(CC(=O)OCC(=O)NCc1ccccc1)C(=O)CO2,6.94
21,CCOC(=O)C1=C(Nc2ccc(OC)cc2)OCC1=O,12.5
22,O=C(Cc1cccs1)NC1(C(=O)NC2CCCC2)CCCCC1,-9.97
23,CN(C)CCn1c2c(c(SCC(=O)NCc3ccccc3)nc1=O)CCC2,4.19
24,Cc1nc2cc(NC(=O)N3c4ccccc4CC3C)ccc2n1C (stereo not drawn),5.76
